± gives the standard deviation of the averaged measurements. This is one part of the list.
These sequences were tested on PfAP2-I AP2 domain 3 (GST-tagged) (assay: gcPBM binding intensity (ln(normalized median fluorescence intensity)); higher = stronger DNA binding).
Outline: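 The binding buffer was 1× PBS containing 1% milk, 0.2 mg/ml BSA, 0.5% salmon testes DNA and 0.03% Triton X-100. In it, GST-tagged P. falciparum DNA-binding domains expressed in E. coli were applied for 1 h to an Agilent 4 × 180k array of primer-extended double-stranded 36-bp intergenic genomic probes plus negative controls. Binding intensity, read with Alexa488 anti-GST antibody and a 488 nm scan, is the highest Masliner-normalised natural-log median intensity across replicate spots of either probe orientation.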

Point of comparison: “TAAACACCCATATAAACACACATATAAACACCCATA [CACACA_site5382]”, “gcPBM binding intensity (ln)” value 8.08 ± 0.28. Against it:
- GAAAAAAAAAAAAGGGGTACATTTATTTTATCAATA [XGTACX_site8331] — within error, 7.63 ± 0.56
- AATATTGTTCACAAGGTGCTTTTTATTCATACTAAT — higher, 8.86 ± 0.18
- TATGTATAACTCAATGCATGCGAAGGACTATTATTT [TGCATGCA_site222] — within error, 7.87 ± 0.86
- ACCTCACAAATGAATACACACAAACATATAGATTTA [CACACA_site6862] — within error, 7.92 ± 0.37
- ATATATAAAATTATATGTACATATATCTATTTATAA [XGTACX_site3713] — within error, 7.79 ± 0.39
- GATTAAAACTTTAACTGTACATAATAATTATCAATC [XGTACX_site5938] — within error, 7.76 ± 0.42
- TTTAAAATTTCTTAATGTACGTAATAAAAAAAAAAA [XGTACX_site4037] — within error, 8.02 ± 0.54
- TATATGTATTTATATACACACATATTCTTTTTACAC [CACACA_site8320] — within error, 7.81 ± 0.26
- AATATTTTGAACAACAGTACTCTTTCTTTCTTTCTT [XGTACX_site7212] — within error, 7.59 ± 0.79
- TCCTTTTCATCTTGTAGTACGGAAATGTAGCTCCAA [XGTACX_site8563] — within error, 7.75 ± 0.63
- TATATCTACTTAAAAAGTACGTAAATTATAAGCTAT [XGTACX_site6420] — within error, 7.43 ± 0.45
- TGTGTAAATATGTATACACACATATCTGATCAATAT [CACACA_site7507] — within error, 7.87 ± 0.34
- CCTTTTTTATTTACAACACACGTAAAGGTTCAAATA [CACACA_site1741] — within error, 8.28 ± 0.59
- GTAAATATTAATAAAAGTACATATGTAGCATATGGA [XGTACX_site5219] — within error, 7.76 ± 0.57
- AAAAAACACAGACATACACACAAAAAGGTTATAAAT [CACACA_site4222] — within error, 7.86 ± 0.69
- AGAAAAAAAAAAAATGCACACATTTTCATTGTCAGT [CACACA_site1935] — within error, 8.51 ± 0.18
- ATATATATATATATGTGTACATATTTTTTTTTTTTT [XGTACX_site3425] — higher, 9.38 ± 0.19
- TTAAACATATATTAAGCACACACAAACAAAAAAACA [CACACA_site8816] — higher, 8.935 ± 0.035
- TAATTAATCGATTTACGCACATGAACAAAAGCACAT [CACACA_negctrl_site1287] — higher, 9.45 ± 0.13
- AACATATTTTTTTGTTGTACTTACAATTATAAGCAT [XGTACX_site3056] — within error, 7.72 ± 0.54
- TATACCAAATATATGGGTACACAAATATGTTTATTC [XGTACX_site8932] — within error, 7.7 ± 0.33
- TATAAAGCAACTGAAACACACAAATTTTTTTTTTTT [CACACA_site3218] — within error, 7.68 ± 0.31
- ATTATTTATTTATGTGTGCGCATGTGTGTAAATATT — higher, 8.95 ± 0.22
- ACTATTTTCTTCAAAACATGCACCACATAAACATAA [TGCATGCA_site200] — higher, 9.75 ± 0.23
- TTTATTTATTTTTAACGTACGCACACATATAAATAT [XGTACX_site4042] — within error, 8.43 ± 0.49
- TATTATAAAATATACACATGCAAAAACAAAATTTAC [TGCATGCA_site1051] — within error, 8.06 ± 0.67
- TATTTTTAATAAAAACGTACGGAATACAAAAAAAAT [XGTACX_site3477] — within error, 8.17 ± 0.61
- TAAAATTTATAAACTACACACATATAAATAGTAATA [CACACA_site7708] — within error, 7.56 ± 0.57
- TATATACATTGGTATACATGCATTCTCTTTCATACA [TGCATGCA_site734] — within error, 7.89 ± 0.71
- ACAGAAAAAAGACACACACACATAATATACATACAT [CACACA_site6991] — within error, 7.96 ± 0.56
- TATATATATATATATACACACACACTAATAAAAAAA [CACACA_site8426] — higher, 9.44 ± 0.22
- CTTAGATATAAAAATTGTACATACATATTTTTGACA [XGTACX_site2107] — within error, 7.71 ± 0.3
- ATTTTTTAAATGAGGCGTACACAAAAATATAATTAC [XGTACX_site7087] — higher, 8.74 ± 0.071
- TTTTTTTCGTAAAAAAAAATAATTATTAAATGAAGG [TGCATGCA_negctrl_site212] — within error, 7.86 ± 0.49
- AAGAATATATAGGACACACATACAATAATAAATATA [CACACA_site4119] — within error, 7.84 ± 0.34
- TATCCTACATTAACAAGTACAAAGAGATCCTACGTA [XGTACX_site4252] — within error, 7.55 ± 0.33
- TTTCTCCATATTAAAGTGCATTAATAACAAAAATAA [GTGCAC_site9934] — higher, 11.4 ± 0.81
- AACGCCACTTCAATGGCACACACCAATTATTTTTCA [CACACA_site1026] — within error, 8.13 ± 0.52
- TCATTCGAATAAATTGCACACATGACATCCGTTGTA [CACACA_site2587] — higher, 8.71 ± 0.34
- AAAAAAAAAAAAAATATACACACTAATATATTTTTT [CACACA_site815] — within error, 7.98 ± 0.54
- ATATATATATTAATTACACACAAAAAAAAAAAAAAA [CACACA_site1165] — higher, 8.59 ± 0.057
- TATTAATAATATAATAGTACTTTCACTGTAAATTTA [XGTACX_site6419] — within error, 7.62 ± 0.49
- TATATACAGATATATACACACATATTTATATTTTAT [CACACA_site7734] — within error, 7.68 ± 0.35

Reference: the supplement of paper PMC11417369
